# Patent US20260000782A1, “ITGB2-MEDIATED DRUG DELIVERY SYSTEM” (TWINPIG BIOLAB INC., priority 2022, published 2026)
# Target: T1, ITGB2 (Homo sapiens, UniProt P05107)
# T1 construct: cell membrane proteins of macrophages were obtained using a cell membrane protein extraction kit; endogenous in cells; host or cells: THP-1 cells differentiated into M2 (and M0, M1) macrophages
# Assay: Biotin-peptide pull-down of macrophage cell membrane proteins, LC-MS/MS proteomics
# Format: binding
# Details: cell membrane proteins of M0, M1, M2 macrophages, peptide-biotin 200 μg, 1 hour
# Procedure: To determine which protein of M2 macrophages was involved in the specific binding of melittin to M2 macrophages, biotin-conjugated melittin (melittin-biotin) was synthesized. THP-1 cells (5×10^6 cells) were differentiated into M0, M1, and M2 macrophages, and then collected using a scraper, washed by centrifugation (300×g, 5 min), and cell membrane proteins of macrophages were obtained using a cell membrane protein extraction kit (Thermo Fisher scientific). The proteins reacted with melittin-biotin (200 μg) in which biotin bound to melittin at room temperature (20 to 24° C.) for 1 hour, and then the proteins bound to melittin were obtained using a streptavidin resin (Thermo Fisher scientific). To remove the salt, 100 μl each of 100% methanol, 0.1% formic acid, and 80% CAN were added to an 18 Micro Spin-Column, and the sample was loaded onto the prepared column, and added with 50 μl of 0.1% formic acid to remove unnecessary substances. […] After desalting, the solution was completely removed by drying with a Speed-vac, and analyzed by LC-MS/MS using a UPLC-Exactive equipment (Thermo Fisher Scientific) under the conditions shown in Table 2 below. […] For data analysis, LC-MS/MS data for each sample were analyzed using Proteome Discoverer, and performed by LFQ (Label-Free Quantification) using a human database of Uniprot as the database. […]
smiles,measurement,value
"CC[C@H](C)[C@H](NC(=O)CN)C(=O)NCC(=O)N[C@@H](C)C(=O)N[C@H](C(=O)N[C@@H](CC(C)C)C(=O)N[C@@H](CCCCN)C(=O)N[C@H](C(=O)N[C@@H](CC(C)C)C(=O)N[C@H](C(=O)N[C@H](C(=O)NCC(=O)N[C@@H](CC(C)C)C(=O)N1CCC[C@H]1C(=O)N[C@@H](C)C(=O)N[C@@H](CC(C)C)C(=O)N[C@H](C(=O)N[C@@H](CO)C(=O)N[C@@H](Cc1c[nH]c2ccccc12)C(=O)N[C@H](C(=O)N[C@@H](CCCCN)C(=O)N[C@@H](CCCNC(=N)N)C(=O)N[C@@H](CCCCN)C(=O)N[C@@H](CCCNC(=N)N)C(=O)N[C@@H](CCC(N)=O)C(=O)N[C@@H](CCC(N)=O)C(N)=O)[C@@H](C)CC)[C@@H](C)CC)[C@@H](C)O)[C@@H](C)O)C(C)C)C(C)C [melittin, Melittin]",M2 macrophage membrane protein bound by biotin-conjugated peptide,interacted and bound with the membrane protein ITGB2 of M2 macrophages
